Data: PubChem BioAssay AID2546 (National Center for Advancing Translational Sciences (NCATS), 2010)
Out of some 310,000 compounds screened, about 11,000 (3.5%) were called active. The shares of active, inactive and inconclusive entries below differ from those in the screen. Calls come from the whole dose curve; as a rule, active = well fitted inhibition curve with a large enough effect; inconclusive = small, poorly fitted or top-dose-only effect, or effect the other way; inactive = flat fitted curve, though single readings scatter. Potencies of inconclusive entries are left out as doubtful fits.

assay: VP16 counterscreen qHTS for inhibitors of ROR gamma transcriptional activity; settings: Drosophila S2 Gal4-VP16 UAS-luciferase, luminescence, 20 h; series mostly up to 53.6 µM;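 note: Gal4-VP16 expression switched on by copper sulfate through the metallothionein promoter; nearly all actives have a fitted effect of over 50% in size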
Potency is the fitted concentration of half-maximal effect; tags give direction and shape of the fitted curve.

| SMILES | Potency |
| --- | --- |
| CC(=O)c1c(C)[nH]c(C(=O)N2CCc3ccccc32)c1C | inconclusive [inhibitor, single point] |
| Cc1nc2ccc(Cl)cn2c1C(=O)NN | inconclusive [inhibitor, single point] |
| Cc1ccc(CNC(=O)CCC2CCCN(Cc3cccc4ncccc34)C2)o1 (stereo not drawn) | inconclusive [activator, partial curve] |
| COc1ccc(C)cc1N(CC(=O)NC1CCCC1)C(=O)CCC(=O)Nc1nc(C)cs1 | inconclusive [inhibitor, single point] |
| COc1ccc(-n2ncc3c(N4CCCCC4)ncnc32)cc1 | active: 2 µM |
| CCC(=O)NC(=S)Nc1c(C)cc(Br)cc1C | active: 7.08 µM |
| O=S(=O)(Cc1ccccc1)N=Nc1c(O)[nH]c2ccc(Br)cc12 | inactive |
| CCc1nnc(NC(=O)CSc2nnc(CSc3nc(C)cc(C)n3)o2)s1 | active: 12.6 µM |
| Cc1ccc(S(=O)(=O)Oc2ccc(/C=N/NC(=O)c3nn(C)cc3[N+](=O)[O-])cc2)cc1 | inconclusive [activator, single point] |
| O=C(Nc1cccc(Cl)c1)Nc1csc([N+](=O)[O-])c1 | inconclusive [inhibitor, single point] |
| S=c1[nH]nc(C2CCCCC2)n1/N=C/c1ccccc1Br | inconclusive [inhibitor, single point] |
| CCC1CC=CC2C1C(=O)N(Cc1ccccc1)C2c1ccc2ccccc2c1 (stereo not drawn) | inconclusive [inhibitor, single point] |
| CCn1c(/C=C/c2ccccc2)nc2ccccc21 | inconclusive [inhibitor, single point] |
| COc1cccc(OC)c1C1=Nn2c(nnc2-c2ccccc2C)SC1 | inactive |
| COc1ccc(C(=O)NC2CC2)cc1OC1CCN(Cc2ccccc2)CC1 | inactive |
| CCNC(=S)N/N=C1\CCCCc2ccccc21 | active: 3.98 µM |
| C/C(=N/NC(=O)c1cnccn1)c1cccs1 | inconclusive [inhibitor, single point] |
| CC(C)(C)C(=O)NC(=S)NCc1ccccc1 | inconclusive [inhibitor, single point] |
| CCn1c(=O)c(C(=O)NNC(=O)c2ccc(Cl)cc2Cl)c(O)c2ccccc21 | inconclusive [inhibitor, single point] |
| COc1ccc2nc(NC(=O)Nc3cccc4ccccc34)sc2c1 | inactive |
| CC1CCCN(C(=O)c2ccc3c(=O)n(Cc4ccc5c(c4)OCO5)c(=S)[nH]c3c2)C1 (stereo not drawn) | inconclusive [inhibitor, single point] |
| COc1ccc(-c2noc(CN(C(=O)C(C)(C)C)C(C)C)n2)cc1 | inactive |
| NC(=O)CSc1nnc(-c2ccccn2)n1Cc1ccco1 | inactive |
| CC1CCCCC1NC(=O)CN(C)S(=O)(=O)c1ccc2c(c1)c(=O)n(C)c(=O)n2C (stereo not drawn) | inconclusive [inhibitor, full curve, poor fit] |
| O=C1c2ccccc2C(O)(Cc2ccccc2)N1c1ccc2c(c1)OCO2 (stereo not drawn) | inconclusive [activator, partial curve, poor fit] |

| SMILES | Potency |
| --- | --- |
| CCC(CC)COC(=O)C(C#N)c1nc2ccccc2nc1N1CCOCC1 (stereo not drawn) | inactive |
| O=C(Nc1ccc(Cl)cc1)N(Cc1nc2ccccc2c(=O)[nH]1)Cc1cccs1 | inconclusive [inhibitor, single point] |
| Cc1ccc2c(c1)N(CC(=O)N1CCCC1)C(=O)c1cccnc1O2 | inactive |
| CC1c2ccsc2CCN1S(=O)(=O)c1ccccc1 (stereo not drawn) | inconclusive [inhibitor, single point] |
| COc1ccc(-c2cc(C3C4C=CCC(C)C4C(=O)N3Cc3ccccc3)ccc2F)cc1 (stereo not drawn) | inactive |
| CCOC(=O)C1=NN(C(=O)Cc2ccccc2)C(O)(c2ccc(Cl)cc2)C1 (stereo not drawn) | active: 10 µM |
| CCOC(=O)CSC1=NC(=O)/C(=C\c2ccc(Cl)cc2)S1 | active: 12.6 µM |
| c1ccc(N(c2ccccc2)c2nc(N3CCCC3)nc(-n3ccnc3)n2)cc1 | active: 11.2 µM |
| O=C(CCCn1c(SCC(=O)c2ccc(Cl)cc2)nc2ccccc2c1=O)NCc1ccco1 | inconclusive [inhibitor, single point] |
| CCn1c(-c2sc(-c3ccccc3)nc2C)n[nH]c1=S | inconclusive [inhibitor, partial curve] |
| CCCNC(=S)NC1CCCC1 | inconclusive [inhibitor, single point] |
| Cc1cnc(NC(=O)c2sc3ccccc3c2Cl)s1 | active: 5.01 µM |
| Cc1ccccc1OCCN1CCC(Cc2ccccc2)CC1 | inactive |
| CCOC(=O)N1C(=O)[C@@](c2ccc(Cl)cc2)(C(C)C)N1C(=O)OCC | inconclusive [inhibitor, single point] |
| CCN(CC)c1ccc(/C=N/NC(=O)c2ccc(Br)o2)cc1 | inconclusive [inhibitor, single point] |
| Cc1cc(C)c(C#N)c(SCc2nnc(-c3ccccc3)o2)n1 | inconclusive [inhibitor, full curve, poor fit] |
| CCc1ccc(Oc2cc(C)nc(N)n2)cc1 | inconclusive [activator, single point] |
| COc1ccc(N2C(=O)/C(=C\c3ccco3)N=C2SCC(=O)N(C(C)C)C(C)C)cc1Cl | active: 10 µM |
| O=C(Cc1ccccc1)Nc1cccc(C(=O)O)c1O | active: 10 µM |
| Cc1cnc(C(=O)Nc2cccc3cccnc23)cn1 | active: 0.199 µM |
| CCCC(=O)NC(c1ccc(Cl)cc1Cl)c1ccc2cccnc2c1O (stereo not drawn) | active: 2 µM |
| COc1ccc2c(c1)nc(SCC(C)O)n2C (stereo not drawn) | inactive |
| CCc1nnc(N/N=C/c2ccc(N3CCC(C)CC3)c([N+](=O)[O-])c2)n1N | inconclusive [inhibitor, single point] |
| Cn1c(=O)c2c(ncn2CC(=O)N2CCc3ccccc3C2)n(C)c1=O | inactive |
| Cc1ccccc1C(=O)NNC(=S)Nc1cccc(C(F)(F)F)c1 | inconclusive [inhibitor, single point] |

| SMILES | Potency |
| --- | --- |
| O=C(NCc1nnc(SCc2ccc(C(F)(F)F)cc2)n1-c1ccccc1)C12CC3CC(CC(C3)C1)C2 | inconclusive [inhibitor, single point] |
| COc1ccccc1Sc1nc(-c2ccccn2)ncc1OC | inconclusive [inhibitor, single point] |
| CSc1ccccc1NC(=O)CN(C)C(=O)Cc1c(F)cccc1Cl | inactive |
| CC(C)CC(NC(=O)C1CCC(C)CC1)C(=O)NCc1ccccn1 (stereo not drawn) | inactive |
| O=C(NC(=O)c1ccccc1)Nc1ccc(-c2cnco2)cc1 | inconclusive [activator, single point] |
| Cc1cc(-c2ccc(/C=N/n3cnnc3)o2)c(C)c([N+](=O)[O-])c1 | inconclusive [activator, single point] |
| Cc1ccccc1Nc1nc(Nc2ccccc2C)nc(SC2=NCCS2)n1 | active: 7.08 µM |
| Cc1cc(Cl)c2oc(C(=O)N3CCN(C(=O)c4ccco4)CC3)c(C)c2c1 | inconclusive [inhibitor, single point] |
| COc1ccc(/C=C/C(=O)c2ccc(O)cc2O)cc1 | inconclusive [inhibitor, full curve, poor fit] |
| COc1ccc(C(=O)/C=C/C(=O)N(CC(=O)NC2CCCCC2)CC2CCCO2)c(O)c1 (stereo not drawn) | active: 3.16 µM |
| Cc1cc(N2CCN(C(=O)c3ccco3)CC2)n2nc(-c3cccc(Cl)c3)cc2n1 | inconclusive [inhibitor, single point] |
| Cc1cc(S(=O)(=O)NCc2cccs2)ccc1-n1cnnn1 | inconclusive [activator, single point] |
| CSc1ncc(C(=O)Nc2ccc(C(C)=O)cc2)c(-c2ccccc2)n1 | inconclusive [activator, full curve, poor fit] |
| COc1ccccc1NC(CC(=O)c1ccccc1)C(=O)OCC(=O)c1ccc(C)cc1 (stereo not drawn) | inconclusive [activator, single point] |
| Cc1cccc(NC(=O)c2ccc(N(C)C3CCCCC3)c([N+](=O)[O-])c2)n1 | inconclusive [inhibitor, single point] |
| O=C(Cn1cnc(S(=O)(=O)N2CCCC2)c1)Nc1ccc(OC(F)(F)F)cc1 | inactive |
| CC12CC(c3ccccc3O1)N(C(=O)c1ccco1)C(=S)N2c1ccccc1 (stereo not drawn) | inconclusive [inhibitor, single point] |
| COc1ccc2c(c1)c(/C=N/Nc1ccc(C(=O)O)cc1)c(C)n2C | inconclusive [inhibitor, single point] |
| CC(=O)c1ccc(N2CCC(c3cc(-c4ccc(Cl)cc4)n[nH]3)CC2)c([N+](=O)[O-])c1 | inconclusive [inhibitor, single point] |
| Cc1ccc(C(=O)N2CCN(Cc3ccc4c(c3)OCO4)CC2)cc1C | inactive |
| CC1=NN(C(=O)c2ccc(Cn3cc(Br)c([N+](=O)[O-])n3)o2)C(O)(C(F)(F)F)C1 (stereo not drawn) | active: 11.2 µM |
| Oc1ccc(-c2nnc(-c3ccc(O)cc3)nn2)cc1 | inconclusive [inhibitor, full curve] |
| Cc1c(CCC(=O)N2CCC[C@H]2C(=O)O)c(=O)oc2cc3oc4c(c3cc12)CCCC4 | inconclusive [inhibitor, full curve] |
